For this assay, the target named is GluN1a/GluN2A human receptors (Homo sapiens, UniProt Q12879). The experiment in a line: Calcium influx (FLIPR) in GluN1a/GluN2A L(tk−) cells. The note with it: agonist-stimulated NR1a/NR2A cells, concentrations up to 30,000 nM.

For `Cc1ccc(COC(=O)N2CC[C@H](CNc3ncccn3)[C@H](F)C2)cc1` [Form II, 4-methylbenzyl (3S, 4R)-3-fluoro-4-[(pyrimidin-2-ylamino)methyl] piperidine-1-carboxylate], the “effect on calcium influx” value is recorded as “no effect”.

For the origin of these results see patent US12410153B2, “Compounds, compositions and methods” (Avalo Therapeutics, Inc., priority 2014, dated 2025).
